Test results from the supplement of paper PMC6531468.
This is one part of the list. Values come from read counts of a selection and are noisy. Each score is taken over the longer molecules that contain the sequence shown.

Legend:
Assay in all cases: 6-mer SELEX enrichment z-score vs GST control; IMP3 is the RNA-binding protein IGF2BP3; higher = more enriched by binding
[1] = test system: IMP3 KH1-4; details: construct: KH1-4 (164-579); SELEX round: R4
Method: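 SELEX-seq with GST-tagged IMP3 KH1-4 (Pro164-Lys579) and an N40 RNA pool, round 4. 6-mer z-score of sequence-tag enrichment normalised to the corresponding GST SELEX round; RNA k-mers written as DNA (T for U).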

[2] = test system: IMP3 RRM1-2; details: construct: RRM1-2 (1-163); SELEX round: R2
Method: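 SELEX-seq with GST-tagged IMP3 RRM1-2 (Met1-Asn163) and an N40 RNA pool, round 2. 6-mer enrichment z-score normalised to GST SELEX. RNA written as DNA (T = U).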

[3] = target: IMP3 full-length (UniProt O00425); details: construct: FL IMP3 (1-579); SELEX round: R4
Method: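 SELEX-seq with GST-tagged full-length IMP3 and an N40 RNA pool, round 4. Each 6-mer is scored as an enrichment z-score of sequence tags containing it, normalised to the matching GST SELEX round. RNA written as DNA (T = U).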

[4] = test system: IMP3 KH3-4; details: construct: KH3-4 (377-579); SELEX round: R4
Method: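 SELEX-seq with GST-tagged IMP3 KH3-4 (Pro377-Lys579) and an N40 RNA pool, round 4. 6-mer z-score of sequence-tag enrichment normalised to the corresponding GST SELEX round; RNA k-mers written as DNA (T for U).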

[5] = test system: IMP3 KH1-2; details: construct: KH1-2 (164-376); SELEX round: R4
Method: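 SELEX-seq with GST-tagged IMP3 KH1-2 (Pro164-Phe376) and an N40 RNA pool, round 4 (stringent 300/600 mM KCl washes). 6-mer z-score of sequence-tag enrichment normalised to the corresponding GST SELEX round; RNA k-mers written as DNA (T for U).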

Chain of IMP3 KH1-2 (chain, as listed by the source): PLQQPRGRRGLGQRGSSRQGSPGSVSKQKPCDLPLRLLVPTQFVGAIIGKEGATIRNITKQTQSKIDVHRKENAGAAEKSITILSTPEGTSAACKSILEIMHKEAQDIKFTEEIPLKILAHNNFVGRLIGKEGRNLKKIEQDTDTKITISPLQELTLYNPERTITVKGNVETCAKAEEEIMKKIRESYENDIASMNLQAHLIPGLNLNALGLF
Chain of IMP3 RRM1-2 (chain, as listed by the source): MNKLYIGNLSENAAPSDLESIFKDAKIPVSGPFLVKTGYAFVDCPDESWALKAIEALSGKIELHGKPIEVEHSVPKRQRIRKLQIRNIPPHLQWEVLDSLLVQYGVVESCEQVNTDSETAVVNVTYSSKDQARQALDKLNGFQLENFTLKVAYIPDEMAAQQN
Chain of IMP3 KH1-4 (chain, as listed by the source): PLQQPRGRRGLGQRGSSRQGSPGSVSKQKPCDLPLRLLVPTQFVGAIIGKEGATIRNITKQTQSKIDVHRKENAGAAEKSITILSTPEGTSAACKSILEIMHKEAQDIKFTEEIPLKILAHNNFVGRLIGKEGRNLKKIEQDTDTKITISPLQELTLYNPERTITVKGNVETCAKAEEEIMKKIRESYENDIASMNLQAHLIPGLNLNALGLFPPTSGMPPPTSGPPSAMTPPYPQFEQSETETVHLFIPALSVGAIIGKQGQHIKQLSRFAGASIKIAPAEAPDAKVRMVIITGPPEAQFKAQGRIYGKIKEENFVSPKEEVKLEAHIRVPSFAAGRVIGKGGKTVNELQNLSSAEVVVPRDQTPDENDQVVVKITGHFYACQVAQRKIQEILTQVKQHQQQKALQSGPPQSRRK
Chain of UniProt O00425 (O00425 whole entry): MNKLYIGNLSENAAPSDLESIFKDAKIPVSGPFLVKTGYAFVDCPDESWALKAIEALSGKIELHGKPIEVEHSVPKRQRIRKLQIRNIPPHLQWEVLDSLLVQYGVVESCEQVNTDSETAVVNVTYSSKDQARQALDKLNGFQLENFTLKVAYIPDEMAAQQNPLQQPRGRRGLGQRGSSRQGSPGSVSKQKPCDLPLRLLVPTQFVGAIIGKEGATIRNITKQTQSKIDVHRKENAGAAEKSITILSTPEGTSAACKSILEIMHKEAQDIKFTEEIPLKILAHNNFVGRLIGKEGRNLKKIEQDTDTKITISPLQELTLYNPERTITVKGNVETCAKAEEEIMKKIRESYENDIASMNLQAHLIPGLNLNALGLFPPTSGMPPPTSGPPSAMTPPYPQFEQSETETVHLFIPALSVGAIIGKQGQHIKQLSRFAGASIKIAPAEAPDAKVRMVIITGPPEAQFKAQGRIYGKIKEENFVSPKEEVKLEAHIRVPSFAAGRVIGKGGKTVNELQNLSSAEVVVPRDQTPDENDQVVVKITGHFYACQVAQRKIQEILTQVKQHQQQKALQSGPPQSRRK
Chain of IMP3 KH3-4 (chain, as listed by the source): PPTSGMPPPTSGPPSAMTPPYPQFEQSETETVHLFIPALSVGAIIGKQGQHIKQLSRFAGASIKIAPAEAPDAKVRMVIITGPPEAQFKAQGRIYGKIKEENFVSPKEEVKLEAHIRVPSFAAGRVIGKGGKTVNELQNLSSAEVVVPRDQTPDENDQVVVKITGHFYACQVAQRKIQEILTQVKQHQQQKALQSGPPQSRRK

Sequence | 6-mer SELEX enrichment z-score [1] | 6-mer SELEX enrichment z-score [2] | 6-mer SELEX enrichment z-score [3] | 6-mer SELEX enrichment z-score [4] | 6-mer SELEX enrichment z-score [5]
CCCTAC | -0.879 | -0.176 | -0.979 | -1.36 | –
CGTGTA | -0.363 | -0.05 | -0.363 | -0.283 | –
ACTCGC | -0.899 | 0.101 | -0.316 | -0.972 | –
CAGGAG | 0.408 | 0.185 | 0.748 | 0.177 | –
AGGCGG | 0.408 | 0.02 | 0.897 | 0.545 | –
GCAATA | 1.2 | -0.026 | 0.868 | 1.53 | –
TGCGAC | -0.55 | -0.38 | -0.302 | -0.765 | –
ACTATC | 0.536 | 0.471 | -0.01 | 0.319 | –
GCCGAG | -1.47 | -0.625 | 0.007 | -1.21 | –
TCAGTT | 0.515 | 0.75 | 0.663 | 0.442 | –
CCATGG | 0.147 | 0.237 | 0.227 | -0.026 | –
TAGTGC | -0.165 | 0.17 | -0.035 | -0.109 | –
CAATCC | -0.383 | 0.473 | -0.252 | -1.12 | –
ATAGCA | 1.15 | 0.383 | 0.886 | 1.03 | –
ACGTGC | -0.61 | -0.19 | -0.181 | -0.729 | –
AATTCC | 0.763 | -0.479 | -0.292 | 0.43 | –
CAGGCT | 0.319 | 0.697 | 0.865 | 0.332 | –
GCATAA | 0.868 | 0.127 | 0.943 | 1.01 | –
CGTTAT | -0.019 | 0.14 | -0.069 | 0.091 | –
TAGGTT | 0.145 | 0.432 | – | – | 0.137
ATTCCC | 0.221 | -0.388 | -0.559 | -0.374 | –
AGCGTT | -2.04 | 0.088 | -0.909 | -1.69 | –
TAGACT | -0.016 | -0.3 | -0.438 | 0.099 | –

Sequence | 6-mer SELEX enrichment z-score [1] | 6-mer SELEX enrichment z-score [2] | 6-mer SELEX enrichment z-score [3] | 6-mer SELEX enrichment z-score [4] | 6-mer SELEX enrichment z-score [5]
ATTCAA | 0.829 | 1.48 | – | – | 0.955
TGCCGC | 0.351 | -0.038 | – | – | 0.467
GGCAAT | 1.33 | 0.435 | – | 1.71 | 0.852
GTCCCC | 0.01 | -0.297 | – | -0.863 | 0.071
CGTGGC | -0.415 | -0.077 | – | -0.379 | -0.337
AAATAT | 1.61 | -0.902 | – | 2.78 | 1.4
GCCTGT | -0.21 | -0.01 | – | -0.295 | -0.172
GGCTAG | -0.026 | 0.28 | – | 0.278 | 0.032
TTGAAG | -0.021 | -0.466 | – | 0.231 | -0.133
GCCGTC | -0.244 | 0.176 | – | -0.342 | -0.141
GACTTA | -0.014 | -0.47 | – | 0.142 | -0.068
CTTAGT | -0.189 | 0.35 | – | -0.05 | -0.154
TCGACT | -0.666 | 0.016 | – | -0.595 | -0.569
CATCCT | 0.467 | 0.41 | – | -0.199 | 0.321
TATAGC | 0.521 | 0.051 | – | 0.682 | 0.467
TCCGTA | -0.218 | -0.126 | – | -0.325 | -0.071
GCGCAG | -0.888 | 0.136 | – | -0.716 | -0.683
TCTCCG | -0.346 | 0.073 | – | -0.404 | -0.132
GTACGC | -0.426 | -0.039 | – | -0.559 | -0.428
GTCTGA | -0.444 | -0.04 | – | -0.327 | -0.427
TATAGG | 0.869 | 0.265 | – | 1.17 | 0.706
CCCCGC | -0.388 | -0.422 | – | -1.11 | 0.076
TGGTAG | -0.076 | 0.296 | – | 0.089 | -0.029

Sequence | 6-mer SELEX enrichment z-score [1] | 6-mer SELEX enrichment z-score [2] | 6-mer SELEX enrichment z-score [3] | 6-mer SELEX enrichment z-score [4] | 6-mer SELEX enrichment z-score [5]
ATCCAC | -0.506 | 0.396 | – | -1.13 | -0.493
CCAAGG | -0.884 | -0.543 | – | -1.01 | -0.854
CCGTTG | -0.458 | -0.242 | – | -0.588 | -0.378
CACCGG | -0.096 | 0.065 | – | -0.648 | -0.216
ACTAGC | -0.175 | -0.008 | – | -0.287 | -0.286
AACGGA | -0.209 | -1.55 | – | -0.028 | -0.547
ATGTAG | 0.218 | 0.115 | – | 0.372 | 0.08
TTAAGC | -0.259 | 0.023 | – | -0.037 | -0.287
TTTATG | 0.801 | 0.194 | – | 1.21 | 0.621
AACGGG | -0.939 | -0.854 | – | -0.445 | -0.756
CCGATA | -0.162 | -0.983 | – | -0.307 | -0.028
ACTCGA | -2.17 | -0.22 | – | -1.91 | -1.97
ATAGTA | 0.516 | -0.056 | – | 0.766 | 0.323
TGCAAC | 0.431 | 0.313 | – | -0.076 | 0.235
ACTTGT | -0.091 | 0.119 | – | -0.111 | -0.224
GGCCAG | 1.02 | -0.217 | – | 0.933 | 0.882
ATGGGT | 0.311 | 0.308 | – | 0.537 | 0.307
AAACTT | -0.079 | -0.702 | – | 0.259 | 0.004
AGAATG | 0.945 | -1.04 | – | 1.31 | 0.546
GTACGG | 0.431 | 0.022 | – | 0.388 | 0.261
GGCGCC | -0.601 | 0.186 | – | -0.496 | -0.338
